{"source": "paper PMC4336329", "about": "(PLoS ONE, 2015)", "note": "Among all 310,000 compounds or so, about 14,000 (4.5%) showed an effect of 50% or more. The effect is printed as a negative number. Some of the results follow.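 Further: peak tail current of the secondary pulse compared with the same well before compound.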"}
{"molecular_target": "human ether-à-go-go-related gene (hERG) potassium channel (human, UniProt Q12809)", "sequence (Q12809 whole entry, looked up)": "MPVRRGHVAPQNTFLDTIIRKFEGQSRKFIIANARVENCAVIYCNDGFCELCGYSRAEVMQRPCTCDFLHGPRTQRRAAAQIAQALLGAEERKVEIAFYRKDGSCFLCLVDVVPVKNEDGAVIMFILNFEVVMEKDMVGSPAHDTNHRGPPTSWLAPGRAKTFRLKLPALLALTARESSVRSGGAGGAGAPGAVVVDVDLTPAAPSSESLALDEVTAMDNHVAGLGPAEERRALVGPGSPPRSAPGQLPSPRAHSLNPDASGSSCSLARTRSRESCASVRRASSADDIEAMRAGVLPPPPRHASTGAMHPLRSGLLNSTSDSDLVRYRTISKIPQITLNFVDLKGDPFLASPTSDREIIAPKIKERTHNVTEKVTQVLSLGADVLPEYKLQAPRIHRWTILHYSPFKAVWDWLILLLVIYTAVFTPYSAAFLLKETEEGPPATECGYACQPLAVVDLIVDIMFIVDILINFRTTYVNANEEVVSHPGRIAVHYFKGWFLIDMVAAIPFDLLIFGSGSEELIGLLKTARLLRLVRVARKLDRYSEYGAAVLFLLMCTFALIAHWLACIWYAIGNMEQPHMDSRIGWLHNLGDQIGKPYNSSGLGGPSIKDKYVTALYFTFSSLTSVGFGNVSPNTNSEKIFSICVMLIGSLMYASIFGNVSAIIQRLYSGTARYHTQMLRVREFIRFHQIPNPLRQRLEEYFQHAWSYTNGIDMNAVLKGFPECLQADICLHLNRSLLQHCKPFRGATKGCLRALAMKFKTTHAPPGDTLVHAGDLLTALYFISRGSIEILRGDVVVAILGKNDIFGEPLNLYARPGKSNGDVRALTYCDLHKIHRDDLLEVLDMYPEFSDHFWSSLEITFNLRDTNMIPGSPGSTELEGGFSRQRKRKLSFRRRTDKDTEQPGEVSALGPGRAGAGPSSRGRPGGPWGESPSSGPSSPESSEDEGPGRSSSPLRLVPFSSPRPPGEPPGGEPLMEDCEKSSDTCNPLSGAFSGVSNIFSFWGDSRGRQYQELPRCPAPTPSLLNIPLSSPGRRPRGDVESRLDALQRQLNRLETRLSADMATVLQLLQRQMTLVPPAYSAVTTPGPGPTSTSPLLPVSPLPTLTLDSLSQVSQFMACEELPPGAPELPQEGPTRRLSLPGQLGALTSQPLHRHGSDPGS", "assay": "primary screen, population patch clamp on CHO cells stably expressing hERG", "units": {"hERG current change (%, negative = inhibition) at 10uM": "%"}}
{"smiles": "O.O=C(O)c1cc(S(=O)(=O)O)ccc1O", "hERG current change (%, negative = inhibition) at 10uM": 16}
{"smiles": "COc1ccc(C(=O)NC2CCN(C(=S)Nc3cccc(C)c3)CC2)cc1", "hERG current change (%, negative = inhibition) at 10uM": -8.21}
{"smiles": "COc1ccc(S(=O)(=O)Nc2ccc3cn[nH]c3c2)cc1C", "hERG current change (%, negative = inhibition) at 10uM": -3.24}
{"smiles": "COc1ccc(CCN2C(=O)CC(Cc3cccc(C)c3)C2=O)cc1OC", "note": "(stereo not shown)", "hERG current change (%, negative = inhibition) at 10uM": -11.3}
{"smiles": "O=C(Cn1cccc1C(=O)c1ccccc1)NCc1cccnc1", "hERG current change (%, negative = inhibition) at 10uM": -3.6}
{"smiles": "COc1ccc(CCNC(=O)c2cc(C3CC3)on2)cc1OC", "hERG current change (%, negative = inhibition) at 10uM": 13.9}
{"smiles": "Fc1cccc(Cl)c1CSc1ncn[nH]1", "hERG current change (%, negative = inhibition) at 10uM": -18.4}
{"smiles": "CCOC(=O)C1CCN(c2cc3c(cc2NC(=O)c2ccccc2OCC)n(C)c(=O)n3C)CC1", "hERG current change (%, negative = inhibition) at 10uM": -11.6}
{"smiles": "CC(=O)c1ccc(C#CC(C)(C)O)s1", "hERG current change (%, negative = inhibition) at 10uM": 21.5}
{"smiles": "CCOc1ccc(NC(=O)c2nnn(CC(=O)Nc3ccccc3OC)c2N)cc1", "hERG current change (%, negative = inhibition) at 10uM": 3.64}
{"smiles": "CCOC(=O)C(=CNc1cc(C)nn1-c1ccccc1)C(=O)OCC", "hERG current change (%, negative = inhibition) at 10uM": -27.4}
{"smiles": "COc1ccccc1N1CCN(/N=C/c2ccc(OC)c(OC)c2OC)CC1", "hERG current change (%, negative = inhibition) at 10uM": -5.81}
{"smiles": "CN(C)CCNC(=O)COc1ccc(Cl)cc1Cl", "hERG current change (%, negative = inhibition) at 10uM": -18.2}
{"smiles": "Cc1cc(NCCCn2ccnc2)n2nc(C)c(-c3ccccc3)c2n1", "hERG current change (%, negative = inhibition) at 10uM": -72.8}
{"smiles": "Cc1ccc(S(=O)(=O)Nc2ccc(C(=O)N3CCN(c4ccccc4O)CC3)cc2)cc1[N+](=O)[O-]", "hERG current change (%, negative = inhibition) at 10uM": -10.8}
{"smiles": "O=C(CSc1nnc(NC(=O)c2c(F)cccc2F)s1)NCc1ccccc1", "hERG current change (%, negative = inhibition) at 10uM": 11.5}
{"smiles": "CCOc1ccc(NC(=S)Nc2ccccc2C2(C)CC2)cc1", "hERG current change (%, negative = inhibition) at 10uM": 14.6}
{"smiles": "O=C(Cc1ccccc1Cl)Nc1cccc(S(=O)(=O)N2CCOCC2)c1", "hERG current change (%, negative = inhibition) at 10uM": -8.22}
{"smiles": "Cn1nc(OC(=O)Nc2ccccc2)cc1C(F)(F)F", "hERG current change (%, negative = inhibition) at 10uM": 9.59}
{"smiles": "O=C(CNC(=O)c1cccs1)Nc1ccncc1", "hERG current change (%, negative = inhibition) at 10uM": 8.67}
{"smiles": "Cl.O=C(C(c1ccccc1)c1ccccc1)N1CCN(CC(O)COc2ccccc2)CC1", "note": "(stereo not shown)", "hERG current change (%, negative = inhibition) at 10uM": -13.7}
{"smiles": "O=C(Nc1cc(Cl)cc(Cl)c1)c1cccnc1", "hERG current change (%, negative = inhibition) at 10uM": -2.75}
{"smiles": "O=C(NCc1ccncc1)Nc1cc(Cl)ccc1Cl", "hERG current change (%, negative = inhibition) at 10uM": -8.6}
{"smiles": "COc1ccccc1-c1coc2cc(OCC(=O)OCc3ccccc3)ccc2c1=O", "hERG current change (%, negative = inhibition) at 10uM": 25}
{"smiles": "N/C(CC(=O)NC1CCCCC1)=N\\OCC(=O)Nc1ccc(Cl)c(Cl)c1", "hERG current change (%, negative = inhibition) at 10uM": 1.91}
